Reference: article PMC6656915, “The MmpL3 interactome reveals a complex crosstalk between cell envelope biosynthesis and cell elongation and division in mycobacteria” (Scientific Reports, 2019)
These are yes or no findings as the source states them, for the method shown. Some binding calls cover weakened binding; strength is not graded here. Where a sequence is shown, tags or fusion partners need not be part of it.

Amino acid sequences for entries named in this document (tags omitted).
UniProt P9WPB3: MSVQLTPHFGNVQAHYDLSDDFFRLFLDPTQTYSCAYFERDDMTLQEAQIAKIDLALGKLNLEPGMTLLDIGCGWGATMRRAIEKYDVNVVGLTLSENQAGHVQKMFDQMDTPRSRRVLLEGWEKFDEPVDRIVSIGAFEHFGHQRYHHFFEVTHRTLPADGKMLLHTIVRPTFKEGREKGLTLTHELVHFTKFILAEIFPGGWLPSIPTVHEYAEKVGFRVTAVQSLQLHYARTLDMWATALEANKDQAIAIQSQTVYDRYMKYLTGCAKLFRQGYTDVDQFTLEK
UniProt P96890: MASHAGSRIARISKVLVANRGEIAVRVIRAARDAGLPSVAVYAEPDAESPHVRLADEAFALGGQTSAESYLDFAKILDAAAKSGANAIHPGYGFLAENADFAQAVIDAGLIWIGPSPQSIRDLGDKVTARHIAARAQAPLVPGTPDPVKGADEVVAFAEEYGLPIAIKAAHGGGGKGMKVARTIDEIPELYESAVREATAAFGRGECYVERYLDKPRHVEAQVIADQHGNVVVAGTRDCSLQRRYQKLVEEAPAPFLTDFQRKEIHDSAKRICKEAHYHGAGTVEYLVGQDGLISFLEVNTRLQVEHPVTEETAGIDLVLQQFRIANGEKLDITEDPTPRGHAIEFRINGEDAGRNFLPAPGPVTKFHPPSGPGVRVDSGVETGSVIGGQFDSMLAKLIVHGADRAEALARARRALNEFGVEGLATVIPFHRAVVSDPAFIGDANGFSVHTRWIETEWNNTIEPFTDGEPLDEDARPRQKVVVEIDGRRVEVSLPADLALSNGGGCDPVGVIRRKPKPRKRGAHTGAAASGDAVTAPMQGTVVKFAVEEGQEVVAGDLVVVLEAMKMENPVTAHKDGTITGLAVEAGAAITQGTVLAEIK
UniProt Q79FX8: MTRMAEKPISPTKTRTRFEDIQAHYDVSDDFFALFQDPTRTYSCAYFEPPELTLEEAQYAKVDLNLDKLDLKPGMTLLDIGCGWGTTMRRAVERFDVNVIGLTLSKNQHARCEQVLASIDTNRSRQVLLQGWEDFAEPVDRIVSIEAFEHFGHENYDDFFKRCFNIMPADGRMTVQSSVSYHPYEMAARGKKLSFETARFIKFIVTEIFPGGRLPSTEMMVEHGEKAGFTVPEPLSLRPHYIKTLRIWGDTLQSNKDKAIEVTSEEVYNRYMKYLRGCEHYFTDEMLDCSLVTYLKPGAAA
UniProt I6X8D2: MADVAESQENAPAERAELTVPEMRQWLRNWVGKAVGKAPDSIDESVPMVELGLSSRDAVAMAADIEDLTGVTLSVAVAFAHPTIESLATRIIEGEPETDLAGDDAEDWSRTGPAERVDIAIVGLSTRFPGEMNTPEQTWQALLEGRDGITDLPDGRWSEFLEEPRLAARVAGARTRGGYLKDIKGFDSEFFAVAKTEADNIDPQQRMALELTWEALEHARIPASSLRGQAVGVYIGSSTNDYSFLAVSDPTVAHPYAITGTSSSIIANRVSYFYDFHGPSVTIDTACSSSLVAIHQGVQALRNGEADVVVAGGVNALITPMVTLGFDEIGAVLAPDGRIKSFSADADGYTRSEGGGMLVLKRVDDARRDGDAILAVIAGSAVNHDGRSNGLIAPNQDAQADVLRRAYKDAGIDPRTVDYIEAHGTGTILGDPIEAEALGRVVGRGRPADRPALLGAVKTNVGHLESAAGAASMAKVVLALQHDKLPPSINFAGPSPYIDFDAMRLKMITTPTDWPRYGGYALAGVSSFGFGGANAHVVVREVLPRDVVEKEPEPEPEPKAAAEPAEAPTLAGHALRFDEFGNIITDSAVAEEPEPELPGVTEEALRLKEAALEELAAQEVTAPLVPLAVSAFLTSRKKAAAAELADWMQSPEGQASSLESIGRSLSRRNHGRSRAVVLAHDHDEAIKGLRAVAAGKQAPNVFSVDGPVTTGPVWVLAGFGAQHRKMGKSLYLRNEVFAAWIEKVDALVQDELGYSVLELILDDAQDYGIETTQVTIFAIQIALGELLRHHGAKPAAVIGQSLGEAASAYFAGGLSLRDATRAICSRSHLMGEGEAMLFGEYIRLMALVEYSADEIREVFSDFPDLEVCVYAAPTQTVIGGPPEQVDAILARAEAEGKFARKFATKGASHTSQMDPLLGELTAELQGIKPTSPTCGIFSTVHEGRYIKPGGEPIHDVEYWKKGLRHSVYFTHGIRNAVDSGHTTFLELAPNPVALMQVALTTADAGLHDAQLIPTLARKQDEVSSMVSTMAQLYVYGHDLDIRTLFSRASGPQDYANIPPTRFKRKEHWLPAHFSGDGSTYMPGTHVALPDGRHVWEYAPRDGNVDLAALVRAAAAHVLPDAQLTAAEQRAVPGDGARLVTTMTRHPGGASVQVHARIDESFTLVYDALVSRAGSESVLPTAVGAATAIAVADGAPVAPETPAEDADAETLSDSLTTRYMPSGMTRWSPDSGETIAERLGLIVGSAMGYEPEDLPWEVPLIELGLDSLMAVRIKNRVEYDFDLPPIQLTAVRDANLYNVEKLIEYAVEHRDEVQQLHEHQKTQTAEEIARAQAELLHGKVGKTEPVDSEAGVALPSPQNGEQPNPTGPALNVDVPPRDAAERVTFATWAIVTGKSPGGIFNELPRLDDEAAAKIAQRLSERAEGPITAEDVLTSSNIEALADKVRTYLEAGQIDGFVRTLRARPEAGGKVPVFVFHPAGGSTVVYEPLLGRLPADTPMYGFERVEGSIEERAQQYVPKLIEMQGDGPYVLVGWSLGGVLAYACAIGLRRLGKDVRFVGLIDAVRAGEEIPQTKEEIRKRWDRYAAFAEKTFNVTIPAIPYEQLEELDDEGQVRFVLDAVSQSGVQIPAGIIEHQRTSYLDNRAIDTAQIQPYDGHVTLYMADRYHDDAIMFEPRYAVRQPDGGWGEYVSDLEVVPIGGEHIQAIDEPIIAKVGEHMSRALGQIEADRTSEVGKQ
UniProt P9WGT3: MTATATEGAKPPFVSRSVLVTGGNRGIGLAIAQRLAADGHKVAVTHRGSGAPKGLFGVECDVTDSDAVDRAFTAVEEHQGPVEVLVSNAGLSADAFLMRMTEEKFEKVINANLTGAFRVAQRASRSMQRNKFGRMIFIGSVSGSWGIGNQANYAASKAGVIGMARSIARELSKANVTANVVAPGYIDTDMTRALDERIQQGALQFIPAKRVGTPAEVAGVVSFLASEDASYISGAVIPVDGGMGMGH
UniProt A5U030: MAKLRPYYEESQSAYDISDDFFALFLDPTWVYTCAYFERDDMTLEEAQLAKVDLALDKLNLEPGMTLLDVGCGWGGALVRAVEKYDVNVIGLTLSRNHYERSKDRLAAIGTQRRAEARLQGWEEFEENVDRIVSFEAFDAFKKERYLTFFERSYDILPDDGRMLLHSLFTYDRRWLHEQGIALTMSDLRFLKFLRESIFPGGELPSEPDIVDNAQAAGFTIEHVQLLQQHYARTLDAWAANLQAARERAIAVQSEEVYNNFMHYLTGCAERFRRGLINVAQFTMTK
UniProt Q6MX39: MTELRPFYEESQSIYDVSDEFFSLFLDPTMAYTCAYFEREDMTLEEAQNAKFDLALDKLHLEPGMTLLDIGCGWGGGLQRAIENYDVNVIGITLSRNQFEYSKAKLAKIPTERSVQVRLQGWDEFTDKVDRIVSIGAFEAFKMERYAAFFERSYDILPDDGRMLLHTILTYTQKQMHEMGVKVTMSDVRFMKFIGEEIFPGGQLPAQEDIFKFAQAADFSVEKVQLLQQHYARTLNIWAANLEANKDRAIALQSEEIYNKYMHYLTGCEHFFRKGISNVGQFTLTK
UniProt P9WPB5: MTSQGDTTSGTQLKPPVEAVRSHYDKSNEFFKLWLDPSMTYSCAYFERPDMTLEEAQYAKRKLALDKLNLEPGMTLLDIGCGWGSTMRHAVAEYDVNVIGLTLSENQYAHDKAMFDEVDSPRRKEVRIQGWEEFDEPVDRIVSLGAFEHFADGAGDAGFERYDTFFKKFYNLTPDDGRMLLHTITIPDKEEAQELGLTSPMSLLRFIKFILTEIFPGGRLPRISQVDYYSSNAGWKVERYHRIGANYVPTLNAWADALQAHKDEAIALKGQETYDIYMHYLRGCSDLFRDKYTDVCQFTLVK

B1: MmpL3 (full-size) fused to T18 or T25 domain for the BACTH two-hybrid system (protein, UniProt P9WJV5 1-944)
chain: MFAWWGRTVYRYRFIVIGVMVALCLGGGVFGLSLGKHVTQSGFYDDGSQSVQASVLGDQVYGRDRSGHIVAIFQAPAGKTVDDPAWSKKVVDELNRFQQDHPDQVLGWAGYLRASQATGMATADKKYTFVSIPLKGDDDDTILNNYKAIAPDLQRLDGGTVKLAGLQPVAEALTGTIATDQRRMEVLALPLVAVVLFFVFGGVIAAGLPVMVGGLCIAGALGIMRFLAIFGPVHYFAQPVVSLIGLGIAIDYGLFIVSRFREEIAEGYDTETAVRRTVITAGRTVTFSAVLIVASAIGLLLFPQGFLKSLTYATIASVMLSAILSITVLPACLGILGKHVDALGVRTLFRVPFLANWKISAAYLNWLADRLQRTKTREEVEAGFWGKLVNRVMKRPVLFAAPIVIIMILLIIPVGKLSLGGISEKYLPPTNSVRQAQEEFDKLFPGYRTNPLTLVIQTSNHQPVTDAQIADIRSKAMAIGGFIEPDNDPANMWQERAYAVGASKDPSVRVLQNGLINPADASKKLTELRAITPPKGITVLVGGTPALELDSIHGLFAKMPLMVVILLTTTIVLMFLAFGSVVLPIKATLMSALTLGSTMGILTWIFVDGHFSKWLNFTPTPLTAPVIGLIIALVFGLSTDYEVFLVSRMVEARERGMSTQEAIRIGTAATGRIITAAALIVAVVAGAFVFSDLVMMKYLAFGLMAALLLDATVVRMFLVPSVMKLLGDDCWWAPRWARRLQTRIGLGEIHLPDERKRPVSNGRPARPPVTAGLVAARAAGDPRPPHDPTHPLAESPRPARSSPASSPELTPALEATAAPAAPSGASTTRMQIGSSTEPPTTRLAAAGRSVQSPASTPPPTPTPPSAPSAGQTRAMPLAANRSTDAAGDPAEPTAALPIIRSDGDDSEAATEQLNARGTSDKTRQRRRGGGALSAQDLLRREGRL
B2: InhA, BACTH fusion (enzyme, UniProt P9WGR1 1-269)
chain: MTGLLDGKRILVSGIITDSSIAFHIARVAQEQGAQLVLTGFDRLRLIQRITDRLPAKAPLLELDVQNEEHLASLAGRVTEAIGAGNKLDGVVHSIGFMPQTGMGINPFFDAPYADVSKGIHISAYSYASMAKALLPIMNPGGSIVGMDFDPSRAMPAYNWMTVAKSALESVNRFVAREAGKYGVRSNLVAAGPIRTLAMSAIVGGALGEEAGAQIQLLEEGWDQRAPIGWNMKDATPVAKTVCALLSDWLPATTGDIIYADGGAHTQLL
B3: AccD4, BACTH fusion (enzyme, UniProt O53578 1-522)
chain: MTVTEPVLHTTAEKLAELRERLELAKEPGGEKAAAKRDKKGIPSARARIYELVDPGSFMEIGALCRTPGDPNALYGDGVVTGHGLINGRPVGVFSHDQTVFGGTVGEMFGRKVARLMEWCAMVGCPIVGINDSGGARIQDAVTSLAWYAELGRRHELLSGLVPQISIILGKCAGGAVYSPIQTDLVVAVRDQGYMFVTGPDVIKDVTGEDVSLDELGGADHQASYGNIHQVVESEAAAYQYVRDFLSFLPSNCFDKPPVVNPGLEPEITGHDLELDSIVPDSDNMAYDMHEVLLRIFDDGDFLDVAAQAGQAIITGYARVDGRTVGVVANQPMHMSGAIDNEASDKAARFIRFSDAFDIPLVFVVDTPGFLPGVEQEKNGIIKRGGRFLYAVVEADVPKVTITIRKSYGGAYAVMGSKQLTADLNFAWPTARIAVIGADGAAQLLMKRFPDPNAPEAQAIRKSFVENYNLNMAIPWIAAERGFIDAVIDPHETRLLLRKSMHLLRDKQLWWRVGRKHGLIPV
B4: FabD, BACTH fusion (enzyme, UniProt P9WNG5 1-302)
chain: MIALLAPGQGSQTEGMLSPWLQLPGAADQIAAWSKAADLDLARLGTTASTEEITDTAVAQPLIVAATLLAHQELARRCVLAGKDVIVAGHSVGEIAAYAIAGVIAADDAVALAATRGAEMAKACATEPTGMSAVLGGDETEVLSRLEQLDLVPANRNAAGQIVAAGRLTALEKLAEDPPAKARVRALGVAGAFHTEFMAPALDGFAAAAANIATADPTATLLSNRDGKPVTSAAAAMDTLVSQLTQPVRWDLCTATLREHTVTAIVEFPPAGTLSGIAKRELRGVPARAVKSPADLDELANL
B5: FadD32, BACTH fusion (enzyme, UniProt O53580 1-637)
chain: MFVTGESGMAYHNPFIVNGKIRFPANTNLVRHVEKWAKVRGDKLAYRFLDFSTERDGVARDILWSDFSARNRAVGARLQQVTQPGDRVAILCPQNLDYLISFFGALYSGRIAVPLFDPAEPGHVGRLHAVLDDCAPSTILTTTDSAEGVRKFIRARSAKERPRVIAVDAVPTEVAATWQQPEANEETVAYLQYTSGSTRIPSGVQITHLNLPTNVVQVLNALEGQEGDRGVSWLPFFHDMGLITVLLASVLGHSFTFMTPAAFVRRPGRWIRELARKPGETGGTFSAAPNFAFEHAAVRGVPRDDEPPLDLSNVKGILNGSEPVSPASMRKFFEAFAPYGLKQTAVKPSYGLAEATLFVSTTPMDEVPTVIHVDRDELNNQRFVEVAADAPNAVAQVSAGKVGVSEWAVIVDADTASELPDGQIGEIWLHGNNLGTGYWGKEEESAQTFKNILKSRISESRAEGAPDDALWVRTGDYGTYFKDHLYIAGRIKDLVIIDGRNHYPQDLECTAQESTKALRVGYAAAFSVPANQLPQTVFDDSHAGLKFDPEDTSEQLVIVGERAAGTHKLDHQPIVDDIRAAIAVGHGVTVRDVLLVSAGTIPRTSSGKIGRRACRAAYLDGSLRSGVGSPTVFATSD
B6: MmaA2, BACTH fusion (enzyme, UniProt Q79FX6 1-287)
chain: MVNDLTPHFEDVQAHYDLSDDFFRLFLDPTQTYSCAHFEREDMTLEEAQIAKIDLALGKLGLQPGMTLLDIGCGWGATMRRAIAQYDVNVVGLTLSKNQAAHVQKSFDEMDTPRDRRVLLAGWEQFNEPVDRIVSIGAFEHFGHDRHADFFARAHKILPPDGVLLLHTITGLTRQQMVDHGLPLTLWLARFLKFIATEIFPGGQPPTIEMVEEQSAKTGFTLTRRQSLQPHYARTLDLWAEALQEHKSEAIAIQSEEVYERYMKYLTGCAKLFRVGYIDVNQFTLAK
B7: MmaA3, BACTH fusion (enzyme, UniProt P0CH91 1-293)
chain: MSDNSTGTTKSRSNVDDVQAHYDLSDAFFALFQDPTRTYSCAYFERDDMTLHEAQVAKLDLTLGKLGLEPGMTLLDVGCGWGSVMKRAVERYDVNVVGLTLSKNQHAYCQQVLDKVDTNRSHRVLLSDWANFSEPVDRIVTIEAIEHFGFERYDDFFKFAYNAMPADGVMLLHSITGLHVKQVIERGIPLTMEMAKFIRFIVTDIFPGGRLPTIETIEEHVTKAGFTITDIQSLQPHFARTLDLWAEALQAHKDEAIEIQSAEVYERYMKYLTGCAKAFRMGYIDCNQFTLAK
B8: CmaA1, BACTH fusion (enzyme, UniProt P9WPB7 1-287)
chain: MPDELKPHFANVQAHYDLSDDFFRLFLDPTQTYSCAYFERDDMTLQEAQIAKIDLALGKLGLQPGMTLLDVGCGWGATMMRAVEKYDVNVVGLTLSKNQANHVQQLVANSENLRSKRVLLAGWEQFDEPVDRIVSIGAFEHFGHERYDAFFSLAHRLLPADGVMLLHTITGLHPKEIHERGLPMSFTFARFLKFIVTEIFPGGRLPSIPMVQECASANGFTVTRVQSLQPHYAKTLDLWSAALQANKGQAIALQSEEVYERYMKYLTGCAEMFRIGYIDVNQFTCQK
B9: KasA, BACTH fusion (enzyme, UniProt P9WQD9 1-416)
chain: MSQPSTANGGFPSVVVTAVTATTSISPDIESTWKGLLAGESGIHALEDEFVTKWDLAVKIGGHLKDPVDSHMGRLDMRRMSYVQRMGKLLGGQLWESAGSPEVDPDRFAVVVGTGLGGAERIVESYDLMNAGGPRKVSPLAVQMIMPNGAAAVIGLQLGARAGVMTPVSACSSGSEAIAHAWRQIVMGDADVAVCGGVEGPIEALPIAAFSMMRAMSTRNDEPERASRPFDKDRDGFVFGEAGALMLIETEEHAKARGAKPLARLLGAGITSDAFHMVAPAADGVRAGRAMTRSLELAGLSPADIDHVNAHGTATPIGDAAEANAIRVAGCDQAAVYAPKSALGHSIGAVGALESVLTVLTLRDGVIPPTLNYETPDPEIDLDVVAGEPRYGDYRYAVNNSFGFGGHNVALAFGRY
B10: KasB, BACTH fusion (enzyme, UniProt P9WQD7 1-417)
chain: MTELVTGKAFPYVVVTGIAMTTALATDAETTWKLLLDRQSGIRTLDDPFVEEFDLPVRIGGHLLEEFDHQLTRIELRRMGYLQRMSTVLSRRLWENAGSPEVDTNRLMVSIGTGLGSAEELVFSYDDMRARGMKAVSPLTVQKYMPNGAAAAVGLERHAKAGVMTPVSACASGAEAIARAWQQIVLGEADAAICGGVETRIEAVPIAGFAQMRIVMSTNNDDPAGACRPFDRDRDGFVFGEGGALLLIETEEHAKARGANILARIMGASITSDGFHMVAPDPNGERAGHAITRAIQLAGLAPGDIDHVNAHATGTQVGDLAEGRAINNALGGNRPAVYAPKSALGHSVGAVGAVESILTVLALRDQVIPPTLNLVNLDPEIDLDVVAGEPRPGNYRYAINNSFGFGGHNVAIAFGRY

What follows are molecules tested against T1, MmpL3 (full-size) fused to T18 or T25 domain for the BACTH two-hybrid system (M. tuberculosis) (UniProt P9WJV5) (assay: two-hybrid).
T1 sequence: B1 chain

Molecule | binding
PcaA, BACTH fusion (from UniProt P9WPB3 1-287) (enzyme) | no binding
AccA3, BACTH fusion (from UniProt P96890 1-600) (enzyme) | no binding
MmaA4, BACTH fusion (from UniProt Q79FX8 1-301) (enzyme) | no binding
Pks13, BACTH fusion (from UniProt I6X8D2 1-1733) (enzyme) | no binding
MabA, BACTH fusion (from UniProt P9WGT3 1-247) (enzyme) | no binding
MmaA1, BACTH fusion (from UniProt A5U030 1-286) (enzyme) | no binding
UmaA, BACTH fusion (from UniProt Q6MX39 1-286) (enzyme) | no binding
CmaA2, BACTH fusion (from UniProt P9WPB5 1-302) (enzyme) | no binding
B1 | binds
B2 | no binding
B3 | no binding
B4 | no binding
B5 | no binding
B6 | no binding
B7 | no binding
B8 | no binding
B9 | no binding
B10 | no binding
